Test results published in the supplement of paper PMC7580552.
Counter-ions that a name gives are not always drawn. The list shows a part of the results. Many values rest on one well or one pass, so single values are uncertain.

test system: Escherichia coli W3110; assay: planktonic growth (OD600) relative to untreated control; higher = more growth; details: 10 µM; 20-24 h; 30 °C; TB
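Also: stationary (unshaken) cultures in 96-well plates, started at OD600 0.05 from mid-exponential cells, with compounds supplied from DMSO stocks.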

Q: For `CCN(CC)CCOCCOC(=O)C1(c2ccccc2)CCCC1` [Carbetapentane citrate], which planktonic growth is on record?
A: 91%

Q: For `CCN(CC)C(=O)C1(c2ccccc2)CC1CN` (centres undefined) [Milnacipran hydrochloride], which planktonic growth is on record?
A: 98%

Q: For `Cc1cc(C(C)(C)C)cc(C)c1CC1=NCCN1` [Xylometazoline hydrochloride], which planktonic growth is on record?
A: 94%

Q: `CCN(CCCCOC(=O)c1ccc(OC)c(OC)c1)C(C)Cc1ccc(OC)cc1` (centres undefined) [Mebeverine hydrochloride] was tested. Which planktonic growth did it give?
A: 94%

Q: With `O=P(O)(O)C(O)(Cn1ccnc1)P(=O)(O)O` [Zoledronic acid hydrate] as the compound, how does the planktonic growth read?
A: 103%

Q: For `COc1cc2nc(N3CCN(C(=O)C4COc5ccccc5O4)CC3)nc(N)c2cc1OC` (centres undefined) [Doxazosin mesylate], which planktonic growth is on record?
A: 92%

Q: With `CCN(CC)C(=O)Nc1ccc(OCC(O)CNC(C)(C)C)c(C(C)=O)c1` (centres undefined) [Celiprolol hydrochloride] as the compound, how does the planktonic growth read?
A: 95%

Q: `N[C@H]1CONC1=O` [(S)-(-)-Cycloserine] was tested. Which planktonic growth did it give?
A: 97%

Q: With `CCCCC1C(=O)N(c2ccccc2)N(c2ccc(O)cc2)C1=O` (centres undefined) [Oxyphenbutazone] as the compound, how does the planktonic growth read?
A: 102%

Q: How did the planktonic growth turn out when `CCOC(=O)/C=C(C)/C=C/C=C(C)/C=C/c1c(C)cc(OC)c(C)c1C` [Etretinate] was run?
A: 99%

Q: For `NC[C@H]1O[C@H](O[C@H]2[C@H](O)[C@@H](O[C@H]3O[C@H](CO)[C@@H](O)[C@H](N)[C@H]3O)[C@H](N)C[C@@H]2N)[C@H](N)C[C@@H]1O` [Tobramycin], which planktonic growth is on record?
A: 21%

Q: With `C=CCOc1ccccc1OCC(O)CNC(C)C` (centres undefined) [Oxprenolol hydrochloride] as the compound, how does the planktonic growth read?
A: 92%

Q: `Cc1c(N)c(=O)n(-c2ccccc2)n1C` [Ampyrone] was tested. Which planktonic growth did it give?
A: 99%

Q: With `CN[C@H]1CC[C@@H](c2ccc(Cl)c(Cl)c2)c2ccccc21` [Sertraline] as the compound, how does the planktonic growth read?
A: 87%

Q: Which planktonic growth does the source give for `C[C@@H]1CCC[C@H](C)N1NC(=O)c1ccc(Cl)c(S(N)(=O)=O)c1` [Clopamide] here?
A: 99%

Q: How did the planktonic growth turn out when `CC[C@H]1OC(=O)[C@H](C)[C@@H](O[C@H]2C[C@@](C)(OC)[C@@H](O)[C@H](C)O2)[C@H](C)[C@@H](O[C@@H]2O[C@H](C)C[C@H](N(C)C)[C@H]2O)[C@](C)(O)C[C@@H](C)CN(C)[C@H](C)[C@@H](O)[C@]1(C)O` [Azithromycin] was run?
A: 23%

Q: With `Cc1ccc(-c2cc(C(F)(F)F)nn2-c2ccc(S(N)(=O)=O)cc2)cc1` [Celecoxib] as the compound, how does the planktonic growth read?
A: 97%

Q: `CC(CNC1CCCCC1)OC(=O)c1ccccc1` (centres undefined) [Hexylcaine hydrochloride] was tested. Which planktonic growth did it give?
A: 91%

Q: For `Nc1ccc(S(=O)(=O)Nc2nccs2)cc1` [Sulfathiazole], which planktonic growth is on record?
A: 54%

Q: `CNCC(O)c1ccc(O)c(O)c1` (centres undefined) [Racepinephrine hydrochloride] was tested. Which planktonic growth did it give?
A: 91%

Q: How did the planktonic growth turn out when `CCOC1O[C@H]([C@@H](COCc2ccccc2)OCc2ccccc2)[C@H](OCc2ccccc2)[C@H]1O` (some centres undefined) [Tribenoside] was run?
A: 98%

Q: `CC(=O)Nc1c(I)c(C(=O)N[C@H]2C(O)O[C@H](CO)[C@@H](O)[C@@H]2O)c(I)c(N(C)C(C)=O)c1I` (some centres undefined) [Metrizamide] was tested. Which planktonic growth did it give?
A: 90%

Q: With `CCN(CC)CCNC(=O)c1ccc(N)cc1` [Procainamide hydrochloride] as the compound, how does the planktonic growth read?
A: 92%

Q: `CCCCOc1cc(C(=O)OCCN(CC)CC)ccc1N` [Benoxinate hydrochloride] was tested. Which planktonic growth did it give?
A: 94%

Q: For `Clc1ccc2nsnc2c1NC1=NCCN1` [Tizanidine hydrochloride], which planktonic growth is on record?
A: 110%

Q: With `CC(C)Oc1ccc2c(=O)c(-c3ccccc3)coc2c1` [Ipriflavone] as the compound, how does the planktonic growth read?
A: 94%

Q: `Cc1cc2cc3c(C)cc(=O)oc3c(C)c2o1` [Trioxsalen] was tested. Which planktonic growth did it give?
A: 94%

Q: How did the planktonic growth turn out when `CC(=O)Nc1nnc(S(N)(=O)=O)s1` [Acetazolamide] was run?
A: 100%

Q: For `CO/N=C(\C(=O)N[C@@H]1C(=O)N2C(C(=O)O)=C(COC(C)=O)CS[C@H]12)c1csc(N)n1` [Cefotaxime sodium salt], which planktonic growth is on record?
A: 17%

Q: `C[C@]12CC[C@@H]3c4ccc(O)cc4C[C@@H](CCCCCCCCC[S+]([O-])CCCC(F)(F)C(F)(F)F)[C@H]3[C@@H]1CC[C@@H]2O` (some centres undefined) [Fulvestrant] was tested. Which planktonic growth did it give?
A: 113%

Q: How did the planktonic growth turn out when `O=c1[nH]c(=O)n([C@H]2C[C@H](O)[C@@H](CO)O2)cc1I` [Idoxuridine] was run?
A: 87%

Q: How did the planktonic growth turn out when `Cc1cccc(N(C)C(=S)Oc2ccc3ccccc3c2)c1` [Tolnaftate] was run?
A: 101%

Q: `O=C(O)c1cccnc1` [Niacin] was tested. Which planktonic growth did it give?
A: 106%

Q: How did the planktonic growth turn out when `CCN1CCCC1CNC(=O)c1cc(S(N)(=O)=O)ccc1OC` (centres undefined) [Sulpiride] was run?
A: 93%

Q: `COc1ccc(-c2ccc3cc(C(=O)O)ccc3c2)cc1C12CC3CC(CC(C3)C1)C2` [Adapalene] was tested. Which planktonic growth did it give?
A: 104%

Q: Which planktonic growth does the source give for `NNC(=O)c1ccncc1` [Isoniazid] here?
A: 113%

Q: For `CC1(C)O[C@@H]2C[C@H]3[C@@H]4C[C@H](F)C5=CC(=O)CC[C@]5(C)[C@H]4[C@@H](O)C[C@]3(C)[C@]2(C(=O)CO)O1` [Flurandrenolide], which planktonic growth is on record?
A: 114%

Q: With `CCC[C@@H]1C[C@@H](C(=O)N[C@@H]([C@H]2O[C@H](SC)[C@H](O)[C@@H](O)[C@H]2O)[C@@H](C)O)N(C)C1` [Lincomycin hydrochloride] as the compound, how does the planktonic growth read?
A: 96%

Q: Which planktonic growth does the source give for `CCN(CC)CCN[C@@H](C(=O)OCCC(C)C)c1ccccc1` [Camylofine chlorhydrate] here?
A: 99%

Q: Which planktonic growth does the source give for `CN1CCCN=C1/C=C/c1cccs1` [Pyrantel tartrate] here?
A: 98%

Q: For `CC12CC3CC(C)(C1)CC(N)(C3)C2` [Memantine Hydrochloride], which planktonic growth is on record?
A: 95%

Q: How did the planktonic growth turn out when `O=C(Nc1ccc([N+](=O)[O-])cc1Cl)c1cc(Cl)ccc1O` [Niclosamide] was run?
A: 94%

Q: How did the planktonic growth turn out when `CCOc1ccc(Cc2nccc3cc(OCC)c(OCC)cc23)cc1OCC` [Ethaverine hydrochloride] was run?
A: 99%

Q: With `C#C[C@]1(O)CC[C@H]2[C@@H]3CCC4=Cc5oncc5C[C@]4(C)[C@H]3CC[C@@]21C` [Danazol] as the compound, how does the planktonic growth read?
A: 96%

Q: With `CC(CN(C)C)CN1c2ccccc2CCc2ccccc21` (centres undefined) [Trimipramine maleate salt] as the compound, how does the planktonic growth read?
A: 110%

Q: `CC(C)NCC(O)COc1cccc2[nH]ccc12` (centres undefined) [Pindolol] was tested. Which planktonic growth did it give?
A: 115%

Q: For `OC(CCN1CCCC1)(c1ccccc1)C1CCCCC1` (centres undefined) [Procyclidine hydrochloride], which planktonic growth is on record?
A: 99%

Q: Which planktonic growth does the source give for `CC(C)C(=O)c1c(C(C)C)nn2ccccc12` [Ibudilast] here?
A: 95%

Q: For `Nc1nc(N)c2nc(-c3ccccc3)c(N)nc2n1` [Triamterene], which planktonic growth is on record?
A: 95%
